In PMC12820563, “FoxP3 forms a head-to-head dimer in vivo and stabilizes its multimerization on adjacent microsatellites” one finds binding signal data, which are given here for 32 sequences.

Some of the results follow.

For the test, the target named is T1, MBP-FoxP1dN (Mus musculus, UniProt P58462 326-579).
T1 sequence: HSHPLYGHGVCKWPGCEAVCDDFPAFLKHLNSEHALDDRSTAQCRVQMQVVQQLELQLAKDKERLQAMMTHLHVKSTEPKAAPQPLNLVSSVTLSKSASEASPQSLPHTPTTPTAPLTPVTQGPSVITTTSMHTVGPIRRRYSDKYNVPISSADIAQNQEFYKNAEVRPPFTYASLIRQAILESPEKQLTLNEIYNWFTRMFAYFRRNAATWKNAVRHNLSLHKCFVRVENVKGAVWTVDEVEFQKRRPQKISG
The test is described as follows: PD-seq (MBP pull-down with sequencing); 20 mM Tris-HCl pH 7.5, 100 mM NaCl, 1.5 mM MgCl2, 0.4 uM protein, 0.1 uM dsDNA library, 30 min, room temperature, amylose pull-down; high values mean tight binding. To be noted: protein: recombinant; tags: His6-MBP; chain copies: 2; dsDNA, one strand shown. In a few lines:
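His6-MBP-tagged mouse FoxP3 or FoxP1 fragment lacking the N-terminus, expressed in E. coli, was mixed at 0.4 µM with 0.1 µM Klenow-filled double-stranded degenerate DNA library. Incubation was 30 min at room temperature in Tris pH 7.5 buffer with NaCl and MgCl2. Complexes were caught on amylose resin and washed three times; DNA was released with proteinase K, PCR-barcoded and Illumina-sequenced. Binding is reads-per-million enrichment, pull-down over input, with replicates pooled.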
Take “GATGATTGTTCTCCCAGCTGATGAATTAACCCGTTCGAGTAAACAAATTTTCCTAATCTTTCTGTTCAAGCGCCATCTAC”: the binding signal was 0.945 RPM ratio (pull-down/input). Regarding “GATGATTGTTCTCCCAGCTGATGAATTTCAGTTCTCGAGTAAACAAATTTTCCTAATCTTTCTGTTCAAGCGCCATCTAC”, the binding signal was 0.791 RPM ratio (pull-down/input). The result for “GATGATTGTTCTCCCAGCTGATGAATTCTCGTAATCGAGTAAACAAATTTTCCTAATCTTTCTGTTCAAGCGCCATCTAC” reads 1.32 RPM ratio (pull-down/input); that for “GATGATTGTTCTCCCAGCTGATGAATTTAGATTTTCGAGTAAACAAATTTTCCTAATCTTTCTGTTCAAGCGCCATCTAC”, 1.08 RPM ratio (pull-down/input).

In the case of “GATGATTGTTCTCCCAGCTGATGAATTTACAAGTTCGAGTAAACAAATTTTCCTAATCTTTCTGTTCAAGCGCCATCTAC”, the binding signal was 1.47 RPM ratio (pull-down/input).

On to “GATGATTGTTCTCCCAGCTGATGAATTCATTGCATCGAGTAAACAAATTTTCCTAATCTTTCTGTTCAAGCGCCATCTAC”, for which the binding signal was 1.24 RPM ratio (pull-down/input). Turning to “GATGATTGTTCTCCCAGCTGATGAATTACCCCCTTCGAGTAAACAAATTTTCCTAATCTTTCTGTTCAAGCGCCATCTAC”, the binding signal was 0.911 RPM ratio (pull-down/input). For “GATGATTGTTCTCCCAGCTGATGAATTACTTTGGTCGAGTAAACAAATTTTCCTAATCTTTCTGTTCAAGCGCCATCTAC”, the binding signal is 0.952 RPM ratio (pull-down/input). For the sequence “GATGATTGTTCTCCCAGCTGATGAATTGGAAGTTTCGAGTAAACAAATTTTCCTAATCTTTCTGTTCAAGCGCCATCTAC”, the binding signal was 0.867 RPM ratio (pull-down/input).

For “GATGATTGTTCTCCCAGCTGATGAATTATTGTAGTCGAGTAAACAAATTTTCCTAATCTTTCTGTTCAAGCGCCATCTAC”, the binding signal was 1.36 RPM ratio (pull-down/input).

“GATGATTGTTCTCCCAGCTGATGAATTATATGAATCGAGTAAACAAATTTTCCTAATCTTTCTGTTCAAGCGCCATCTAC”: the binding signal is 1.03 RPM ratio (pull-down/input). For the sequence “GATGATTGTTCTCCCAGCTGATGAATTATATACGTCGAGTAAACAAATTTTCCTAATCTTTCTGTTCAAGCGCCATCTAC”, the binding signal was 1.19 RPM ratio (pull-down/input).

On to “GATGATTGTTCTCCCAGCTGATGAATTAAGGGCCTCGAGTAAACAAATTTTCCTAATCTTTCTGTTCAAGCGCCATCTAC”, for which the binding signal is 0.879 RPM ratio (pull-down/input). For the sequence “GATGATTGTTCTCCCAGCTGATGAATTCGTGGAATCGAGTAAACAAATTTTCCTAATCTTTCTGTTCAAGCGCCATCTAC”, the binding signal was 0.925 RPM ratio (pull-down/input). The result for “GATGATTGTTCTCCCAGCTGATGAATTTCGTAAGTCGAGTAAACAAATTTTCCTAATCTTTCTGTTCAAGCGCCATCTAC” reads 0.932 RPM ratio (pull-down/input); that for “GATGATTGTTCTCCCAGCTGATGAATTGGTTCGTTCGAGTAAACAAATTTTCCTAATCTTTCTGTTCAAGCGCCATCTAC”, 0.942 RPM ratio (pull-down/input); that for “GATGATTGTTCTCCCAGCTGATGAATTCAAGACCTCGAGTAAACAAATTTTCCTAATCTTTCTGTTCAAGCGCCATCTAC”, 0.724 RPM ratio (pull-down/input). For the sequence “GATGATTGTTCTCCCAGCTGATGAATTGGCCGTTTCGAGTAAACAAATTTTCCTAATCTTTCTGTTCAAGCGCCATCTAC”, the binding signal is 0.865 RPM ratio (pull-down/input). The result for “GATGATTGTTCTCCCAGCTGATGAATTCACAAGATCGAGTAAACAAATTTTCCTAATCTTTCTGTTCAAGCGCCATCTAC” reads 0.88 RPM ratio (pull-down/input); that for “GATGATTGTTCTCCCAGCTGATGAATTTCGAAATTCGAGTAAACAAATTTTCCTAATCTTTCTGTTCAAGCGCCATCTAC”, 0.918 RPM ratio (pull-down/input). Regarding “GATGATTGTTCTCCCAGCTGATGAATTGCCCGTCTCGAGTAAACAAATTTTCCTAATCTTTCTGTTCAAGCGCCATCTAC”, the binding signal was 0.875 RPM ratio (pull-down/input). The result for “GATGATTGTTCTCCCAGCTGATGAATTCATCCCTTCGAGTAAACAAATTTTCCTAATCTTTCTGTTCAAGCGCCATCTAC” reads 0.859 RPM ratio (pull-down/input); that for “GATGATTGTTCTCCCAGCTGATGAATTACCACTGTCGAGTAAACAAATTTTCCTAATCTTTCTGTTCAAGCGCCATCTAC”, 1.01 RPM ratio (pull-down/input). As to “GATGATTGTTCTCCCAGCTGATGAATTGAAGCGATCGAGTAAACAAATTTTCCTAATCTTTCTGTTCAAGCGCCATCTAC”, the binding signal is 0.853 RPM ratio (pull-down/input).

With “GATGATTGTTCTCCCAGCTGATGAATTAACCGTATCGAGTAAACAAATTTTCCTAATCTTTCTGTTCAAGCGCCATCTAC”, the binding signal was 0.975 RPM ratio (pull-down/input). Take “GATGATTGTTCTCCCAGCTGATGAATTAATCAGGTCGAGTAAACAAATTTTCCTAATCTTTCTGTTCAAGCGCCATCTAC”: the binding signal is 0.844 RPM ratio (pull-down/input). Consider “GATGATTGTTCTCCCAGCTGATGAATTAGAATTATCGAGTAAACAAATTTTCCTAATCTTTCTGTTCAAGCGCCATCTAC”, for which the binding signal is 1.07 RPM ratio (pull-down/input).

Turning to “GATGATTGTTCTCCCAGCTGATGAATTAATAATTTCGAGTAAACAAATTTTCCTAATCTTTCTGTTCAAGCGCCATCTAC”, the binding signal was 1.03 RPM ratio (pull-down/input). “GATGATTGTTCTCCCAGCTGATGAATTCAACCCTTCGAGTAAACAAATTTTCCTAATCTTTCTGTTCAAGCGCCATCTAC”: the binding signal was 0.906 RPM ratio (pull-down/input). For “GATGATTGTTCTCCCAGCTGATGAATTGTTCCTATCGAGTAAACAAATTTTCCTAATCTTTCTGTTCAAGCGCCATCTAC”, the binding signal is 1.17 RPM ratio (pull-down/input). With “GATGATTGTTCTCCCAGCTGATGAATTAACGTATTCGAGTAAACAAATTTTCCTAATCTTTCTGTTCAAGCGCCATCTAC”, the binding signal was 1.12 RPM ratio (pull-down/input). For the sequence “GATGATTGTTCTCCCAGCTGATGAATTTCTCTACTCGAGTAAACAAATTTTCCTAATCTTTCTGTTCAAGCGCCATCTAC”, the binding signal is 0.809 RPM ratio (pull-down/input).
